Experimental findings from paper PMC5540273 (PLoS ONE, 2017) are described below.

What all share (conditions): concentration: 1 μM,replicates: in singlicate; n = 1
Assay [1] deals with CDK5.
For assay [2], the system named is CDK7.
Assay [3] concerns CDK8.
The test system of assay [4] is CDK9.
In assay [5] the test system is CDKL1.
The test system of assay [6] is CDKL2.
Assay [7] has as its system CDKL3.
Assay [8] has as its system CDKL5.
Assay [9] concerns CHEK1.
For assay [10], the system named is CHEK2.

For part of these data: This list holds what a sample rich in strong results left over. The entries are a selection whose mix differs from that of the whole data set.
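Note: KINOMEscan kinase panel screen.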

`Cc1ccc(C)c(Oc2nccc(-c3c(-c4ccc(F)cc4)ncn3C3CCNCC3)n2)c1.O=C(O)C(F)(F)F.O=C(O)C(F)(F)F.O=C(O)C(F)(F)F` [SB-284852]: the “%Inh” value in assay [1] came to 0%; in assay [2], 0%; in assay [3] it was 52%; in [4] it was 0%; in assay [5], 54%; in assay [6] it was 37%. Moreover, the “%Inh” value in assay [7], in [8], in assay [9] and in assay [10] was 0% in each case.

Regarding `O=C1NC(=O)C(c2ccccc2Cl)=C1Nc1cccc(C(=O)O)c1` [SB-390526], the “%Inh” value in assay [1] amounted to 0%; in assay [2], 7%; in assay [3] it was 34%; in assay [4] it was 22%; in [5], 0%; in assay [6] it was 59%. Moreover, the “%Inh” value in assay [7] is 0%; in [8], 0%; in [9] it was 8%; in assay [10] it was 27%.

For `O=C1NC(=O)C(c2ccc(Cl)cc2)=C1Nc1cccc(O)c1` [SB-333613], the “%Inh” value in assay [1] came out at 0%; in assay [2] it was 37%; in assay [3], 7%; in assay [4] it was 0%; in assay [5], 30%; in [6] it was 0%. For the same compound, the “%Inh” value in assay [7] is 0%; in assay [8] it was 4%; in assay [9], 5%; in assay [10], 0%.

`O=C1NC(=O)C(c2ccc(Cl)cc2)=C1Nc1ccccc1` [SB-317661]: the “%Inh” value came out at 0% in assay [1]; 2% in assay [2]; 11% in [3]; 0% in [4]; 12% in assay [5]; 4% in [6]. The “%Inh” value is reported as 11% in assay [7], 7% in assay [8], 0% in assay [9] and 0% in assay [10].

Take `O=C1NC(=O)C(c2ccc(Cl)cc2)=C1Nc1cccc(C(=O)O)c1` [SB-360737]: the “%Inh” value in assay [1] came to 0%; in [2], 0%; in assay [3], 0%; in assay [4] it was 0%; in [5], 0%; in [6] it was 9%. Further, the “%Inh” value stood at 0% in [7], 0% in assay [8], 4% in assay [9] and 0% in assay [10].

Regarding `O=C1NC(=O)c2c1c(-c1ccccc1)cc1[nH]c3ccc(O)cc3c21`, the “%Inh” value in [1] is 20%; in [2], 20%; in assay [3], 2%; in assay [4], 35%; in assay [5], 20%; in assay [6] it was 98.5%. The “%Inh” value in assay [7] is listed as 16%; in assay [8] it was 20%; in [10] it was 98.1%.

Turning to `O=C(O)c1ccc(-c2nc(-c3ccc(F)cc3)c(-c3ccncc3)[nH]2)cc1` [SB-202620], the “%Inh” value was 7% in assay [1]; 21% in assay [2]; 0% in [3]; 7% in assay [4]; 37% in [5]; 5% in [6]. Besides, the “%Inh” value in [7] stood at 12%; in [8] it was 0%; in [9] it was 17%; in [10] it was 9%.

With `O=C1NC(=O)C(c2ccccc2)=C1Nc1cc(Cl)c(O)c(Cl)c1` [SB-390530], the “%Inh” value in [1] is 11%; in assay [2], 23%; in assay [3] it was 31%; in assay [4], 0%; in assay [5] it was 0%; in assay [6], 38%. Moreover, the “%Inh” value in assay [7], in assay [8], in assay [9] and in assay [10] was 0% in each case.

On to `O=C1NC(=O)C(c2ccccc2Cl)=C1Nc1ccccc1` [SB-376715], for which the “%Inh” value in assay [1] is on record as 0%; in assay [2], 38%; in assay [3], 22%; in [4], 0%; in assay [5], 0%; in assay [6] it was 19%. Besides, the “%Inh” value was found to be 0% in assay [7], 0% in assay [8], 0% in [9] and 4% in assay [10].

Turning to `COc1cccc(C2=C(Nc3ccc(SC)cc3)C(=O)NC2=O)c1` [SB-331032], the “%Inh” value in assay [1] turned out to be 0%; in [2], 32%; in assay [3] it was 26%; in assay [4], 0%; in assay [5], 12%; in assay [6], 0%. Also, the “%Inh” value in [7] was found to be 0%; in assay [8], 20%; in assay [9] it was 0%; in [10], 0%.

On to `COc1ccc(C2=C(Nc3cccc(Cl)c3)C(=O)NC2=O)cc1` [SB-326892], for which the “%Inh” value in assay [1] is 0%; in assay [2], 0%; in assay [3], 20%; in assay [4], 0%; in assay [5] it was 27%; in assay [6] it was 0%. Besides, the “%Inh” value in [7] was 0%; in [8], 3%; in assay [9], 0%; in [10] it was 0%.

Regarding `O=C1NC(=O)C(c2ccc(Cl)cc2)=C1Nc1ccc(O)c(Cl)c1` [SB-405367], the “%Inh” value came to 31% in [1]; 11% in [2]; 0% in assay [3]; 0% in assay [4]; 37% in assay [5]; 0% in assay [6]. For the same compound, the “%Inh” value in [7] is 0%; in assay [8], 5%; in assay [9], 26%; in assay [10], 1%.

For `CS(=O)(=O)c1ccccc1-c1nc(-c2ccc(F)cc2)c(-c2ccncc2)[nH]1` [SB-213663], the “%Inh” value in assay [1] is on record as 0%; in [2], 27%; in assay [3] it was 43%; in assay [4], 2%; in assay [5], 40%; in assay [6], 44%. Further, the “%Inh” value is on record as 0% in assay [7], 6% in [8], 0% in [9] and 100% in [10].

As to `Cc1cc(C)cc(Oc2nccc(-c3c(-c4ccc(F)cc4)ncn3C3CCNCC3)n2)c1.O=C(O)C(F)(F)F.O=C(O)C(F)(F)F.O=C(O)C(F)(F)F` [SB-284851], the “%Inh” value in assay [1] came to 0%; in [2] it was 0%; in [3], 74%; in assay [4], 0%; in [5], 34%; in assay [6], 28%. For the same compound, the “%Inh” value in assay [7] worked out at 2%; in assay [8], 0%; in assay [9] it was 0%; in assay [10], 0%.

As for `O=C1NC(=O)C(c2ccccc2)=C1Nc1ccc(Cl)c(C(=O)O)c1` [SB-390532], the “%Inh” value turned out to be 0% in [1]; 0% in [2]; 7% in assay [3]; 0% in assay [4]; 0% in assay [5]; 0% in assay [6]. For the same compound, the “%Inh” value in assay [7], in [8], in [9] and in [10] was 0% each time.

For the compound `CSc1ccc(NC2=C(c3cccc(Cl)c3)C(=O)NC2=O)cc1` [SB-341528], the “%Inh” value in assay [1] came to 0%; in assay [2] it was 0%; in assay [3], 0%; in assay [4], 0%; in assay [5], 13%; in [6], 16%. In addition, the “%Inh” value in assay [7], in [8], in assay [9] and in assay [10] was 0% throughout.
